Data taken from PubChem BioAssay AID485344 (National Center for Advancing Translational Sciences (NCATS), 2010).
In all, about 340,000 compounds went through this assay and about 6,900 (2%) were called active. Rule as the data show it: active = inhibition above about 30%; inactive = below that, where a call was filed. Only a part is listed here, and it is no random draw. Entries without a call were filed so in the source.

target: D(2) dopamine receptor (Homo sapiens) (UniProt P14416); test: HTS Assay for Allosteric Antagonists of the Human D2 Dopamine Receptor: Primary Screen for Antagonists; details: HEK293 TREx D2 cells, calcium flux, dopamine EC80; at 10 µM; stronger effect = higher value; also: 0% is about no effect
Chain of UniProt P14416 (P14416 whole entry, looked up): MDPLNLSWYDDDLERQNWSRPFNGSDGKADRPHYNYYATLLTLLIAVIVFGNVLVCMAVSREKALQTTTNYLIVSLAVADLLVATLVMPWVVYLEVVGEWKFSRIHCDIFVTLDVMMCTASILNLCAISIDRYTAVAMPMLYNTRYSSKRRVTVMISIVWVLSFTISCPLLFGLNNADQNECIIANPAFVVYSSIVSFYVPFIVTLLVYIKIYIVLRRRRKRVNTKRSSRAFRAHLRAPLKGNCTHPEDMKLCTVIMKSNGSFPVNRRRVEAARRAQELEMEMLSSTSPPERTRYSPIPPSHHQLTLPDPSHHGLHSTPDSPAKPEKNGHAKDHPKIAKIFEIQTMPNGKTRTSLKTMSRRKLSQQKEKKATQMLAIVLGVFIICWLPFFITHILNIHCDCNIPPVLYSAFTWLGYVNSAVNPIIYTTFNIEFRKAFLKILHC
Summary of the method: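 Antagonism is scored as inhibition of an EC80 dopamine-evoked calcium signal in a force-coupled, tetracycline-inducible HEK293 T-REx D2 line, with compound present 180 s before agonist.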

SMILES | inhibition
COc1cc(NC(=O)c2cc(-c3ccco3)on2)cc(OC)c1OC | active: 33.1%
Cn1cnnc1SCC(=O)Nc1cc(C(=O)O)cc(C(=O)O)c1 | 0.915%
Cc1nn(CC(=O)NC2CCCCC2)c(=O)c2cc3cc(F)ccc3n12 | -15.2%
COC(=O)CSc1nnc(-c2cccc(O)c2)o1 | -2.36%
COC(=O)Cn1c(SCCOc2ccccc2Cl)nc2ccccc21 | 5.79%
COc1ccc(C(C)=O)cc1CSc1nc(NCc2ccc(Cl)cc2)c2ccccc2n1 | -4.71%
CCOC(=O)c1cc(-c2ccc(C)cc2)n(CC(=O)Nc2cc(C)ccc2C)c1C | -1.04%
CC1=C(C(=O)Nc2ccc(C)cc2C)C(c2cc(Br)ccc2F)n2ncc(C(=O)Nc3ccc(C)cc3)c2N1 (stereo unspecified) | 1.97%
COc1ccc(-c2cc(C(F)(F)F)n3nc(C(=O)Nc4cccc(Cl)c4Cl)cc3n2)cc1OC | 8.08%
CC(C)CN(CC(C)C)c1nnc(NC(=O)Nc2cccc(C(F)(F)F)c2)s1 | -9.99%
COc1ccc(OCC(=O)Nc2ccc3c(c2)N(C)C(=O)c2ccccc2S3)cc1 | -1.31%
COc1ccc(-c2cc(C(=O)Nc3c(C(=O)c4ccc(C)c(F)c4)oc4ccccc34)no2)cc1 | 9.72%
CCOc1ccc(CNC(=O)c2ccc(Sc3ccc(C)cc3)c(N)c2)cc1OC | 6.69%
CCn1c(=O)c2cc(C(=O)NCCc3ccc(OC)c(OC)c3)sc2c2ccccc21 | 11.3%
Cc1ccc2nc(Cl)c3cc(C(=O)N4CCCC(C)C4)sc3c2c1 (stereo unspecified) | -15.6%
CCOc1ccc(N(CC(=O)Nc2cc(C)cc(C)c2)S(C)(=O)=O)cc1 | active: 40.8%
Cc1oc(-c2ccccc2)nc1Cn1c(=O)cc(-c2ccccc2)c2c(C)nn(C)c21 | 1.7%
O=C(Cn1cnc2c(nnn2Cc2ccc(F)cc2)c1=O)Nc1cccc(F)c1 | active: 37%
Cc1ccc(NC(=O)c2cnc(SCC(=O)N3CCCc4ccccc43)n(C)c2=O)cc1C | -2.23%
CCN(C(=O)Cn1cnc2c1c(=O)n(C)c(=O)n2C)c1ccccc1C | -3.47%
CC1CCN(CCCNC(=O)c2n[nH]c(=O)c3ccccc23)CC1 | active: 41.1%
Cn1c(=O)c2c(-c3ccccc3)n3c(c2n(C)c1=O)C(c1cccc([N+](=O)[O-])c1)Nc1ccccc1-3 (stereo unspecified) | 20.1%
COc1ccc(-c2cc(C(F)(F)F)n3nc(C(=O)Nc4ccc(Cl)cc4C(F)(F)F)cc3n2)cc1OC | 7.59%
Cc1cccc(C)c1NC(=O)Cn1c(=O)n(CCC(=O)NCc2ccc3c(c2)OCO3)c(=O)c2sccc21 | -2.31%
C=CCn1c(-c2ccc(OC)cc2)csc1=Nc1c(C)n(C)n(-c2ccccc2)c1=O | active: 53.6%
COc1ccc(C(=O)N2CCN(CCc3ccccn3)CC2)cc1 | -13.1%
